Among the data in the supplement of paper PMC9446081 are relative growth values, retold here.

The whole screen tested about 39,000 compounds, of which about 220 (0.56%) showed activity. The list shows a part of the results.
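Note: static incubation at 37 °C against the wild-type strain, values averaged over two biological replicates.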

The assay has as its system Escherichia coli K-12 BW25113. Briefly: relative growth (OD600 normalised to plate interquartile mean) (fraction); higher = less growth inhibition, active = 0.2 or less. To be noted: 50 µM; LB; incubation time: overnight (16-24 h).
With `Cc1ccc(S(=O)(=O)N(C)C[C@H]2Oc3cc(Br)ccc3S(=O)(=O)N([C@H](C)CO)C[C@@H]2C)cc1`, the relative growth was inactive: 1.02.
Turning to `C[C@@H]1CCCCO[C@H](CN(C)Cc2ccc(Cl)c(Cl)c2)[C@@H](C)CN([C@H](C)CO)C(=O)c2cc(NC(=O)NC3CCCCC3)ccc2O1`, the relative growth is inactive: 0.991.
To `COc1ccc(NC(=O)N(C)C[C@@H]2Oc3ncc(C#CC(C)C)cc3C(=O)N([C@H](C)CO)C[C@H]2C)cc1` belongs inactive: 0.985.
To `C[C@H](O)C#Cc1ccc2c(c1)O[C@H](CN(C)C(=O)CN(C)C)[C@H](C)CN([C@@H](C)CO)S2(=O)=O` belongs inactive: 1.01.
`COCC(=O)N1C[C@H](C)[C@@H](OC)CN(C)C(=O)c2ccc(NC(=O)Nc3ccccc3)cc2OC[C@@H]1C`: the relative growth is inactive: 1.03.
`C[C@H]1CN([C@@H](C)CO)C(=O)c2cc(NC(=O)Cn3cnnn3)ccc2O[C@H]1CN(C)S(=O)(=O)c1ccc(F)cc1`: the relative growth is inactive: 1.01.
Turning to `COC[C@H](C)N1C[C@H](C)[C@@H](CN(C)Cc2ccc(Oc3ccccc3)cc2)Oc2c(NC(=O)c3ccncc3)cccc2C1=O`, the relative growth was inactive: 1.
With `O=C(C[C@@H]1C=C[C@@H](NC(=O)c2cccnc2)[C@H](CO)O1)NCc1ccncn1` the figure was inactive: 0.977.
With `C[C@@H]1[C@@H]([Si](C)(C)F)[C@H](CC(=O)N(CCO)Cc2ccccc2)O[C@@]12C(=O)N(c1ccccc1)c1ccccc12` the figure was inactive: 0.961; with `CS(=O)(=O)N1[C@@H]2Cn3c(cccc3=O)[C@H]1[C@@H](C(=O)NCc1ccccc1)[C@@H]2CO`, inactive: 1.
To `C[C@@H]1O[C@@H](O[C@@H]2[C@@H](O)[C@H](C)O[C@@H](OC[C@H]3O[C@@H](Oc4c(-c5ccc(O)c(O)c5)oc5cc(O)cc(O)c5c4=O)[C@@H](O)[C@@H](O)[C@@H]3O)[C@@H]2O)[C@H](O)[C@H](O)[C@H]1O` belongs inactive: 1.
In the case of `C[C@H](CO)N1C[C@H](C)[C@H](CN(C)CC2CC2)Oc2c(NS(=O)(=O)c3ccccc3)cccc2C1=O`, the relative growth is inactive: 1.01.
To `C[C@@H]1CCCCO[C@H](CN(C)C(=O)c2ccncc2)[C@@H](C)CN([C@H](C)CO)C(=O)c2cc(NC(=O)CCCCCC(=O)Nc3ccccc3N)ccc2O1` belongs inactive: 0.986.
As to `CCOC(=O)n1ncc(C#N)c1N`, the relative growth was inactive: 0.988.
For the compound `O=C(C[C@H]1CC[C@@H]2[C@H](COC[C@H](O)CN2C(=O)c2ccc(F)cc2)O1)NCCCN1CCOCC1`, the relative growth is inactive: 0.968.
To `CN(C)CC(=O)N[C@H]1CC[C@@H](CCn2cc(CN(C)C)nn2)O[C@@H]1CO` belongs inactive: 0.955.
To `CC[C@@](N)(C(=O)O)c1ccccc1` belongs inactive: 1.01.
To `COc1ccc(S(=O)(=O)N(C)C[C@@H]2OCCCC[C@H](C)Oc3ccc(NC(=O)Nc4ccccc4)cc3C(=O)N([C@@H](C)CO)C[C@H]2C)cc1` belongs inactive: 1.03.
In the case of `COc1ccc(C(=O)Nc2ccc(CN3C(=O)[C@@]4(O[C@@H](CC(=O)N5CCC[C@H]5CO)[C@H]([Si](C)(C)c5ccc(OC)cc5)[C@H]4C)c4ccccc43)cc2)cc1`, the relative growth was inactive: 0.998.
Consider `CCC(C=CC(C)C1CCC2C3CCC4=CC(=O)CCC4(C)C3CCC12C)C(C)C` (stereo not given), for which the relative growth was inactive: 0.879.
With `C[C@@H]1CCCCO[C@@H](CN(C)Cc2ccccc2)[C@H](C)CN([C@H](C)CO)C(=O)c2cc(NC(=O)CCC(F)(F)F)ccc2O1` the figure was inactive: 1.02; with `Nc1ncnc2c1ncn2[C@H]1O[C@@H](COP(=O)(O)OP(=O)(O)OP(=O)(O)O)[C@@H](O)[C@@H]1O`, inactive: 0.997.
For `CNc1[nH]cnc(=S)c1N`, the relative growth is inactive: 0.97.
With `Cc1noc(C)c1S(=O)(=O)Nc1ccc2c(c1)CC(=O)N([C@@H](C)CO)C[C@@H](C)[C@@H](CN(C)CC1CC1)O2` the figure was inactive: 0.986.
To `C=CC[C@@H](CC(=O)N(CCO)Cc1ccccc1)C(=O)N[C@H](COC(=O)[C@H](CC=C)NC(=O)OCC1c2ccccc2-c2ccccc21)c1ccccc1` belongs inactive: 1.01; to `C[C@@H]1CN([C@H](C)CO)C(=O)Cc2cc(NC(=O)CCN3CCOCC3)ccc2O[C@H]1CN(C)S(=O)(=O)c1ccccc1`, inactive: 1.
As for `COCC(=O)Nc1ccc2c(c1)OC[C@@H](C)N(Cc1ccccc1OC)C[C@@H](C)[C@@H](OC)CN(C)C2=O`, the relative growth was inactive: 1.02.
Turning to `Cc1noc(C)c1NC(=O)N(C)C[C@H]1Oc2ccc(NC(=O)Nc3ccc(C(F)(F)F)cc3)cc2CC(=O)N([C@@H](C)CO)C[C@@H]1C`, the relative growth is inactive: 0.973.
To `C[C@@H]1CCCCO[C@@H](CN(C)C(=O)C2CCCCC2)[C@H](C)CN([C@H](C)CO)C(=O)c2cc(NS(=O)(=O)c3cccs3)ccc2O1` belongs inactive: 0.973.
Regarding `CNC(=O)C(=O)Nc1cc(Cl)ccc1C#N`, the relative growth is inactive: 0.993.
To `CN1C(CC(=O)c2ccccc2)CCCC1CC(O)c1ccccc1.Cl` (stereo not given) belongs inactive: 1.05.
Consider `C[C@@H]1CCCCO[C@@H](CN(C)S(=O)(=O)c2ccccc2)[C@H](C)CN([C@H](C)CO)C(=O)c2cc(NC(=O)c3ccccc3)ccc2O1`, for which the relative growth is inactive: 1.01.
To `C[C@H]1CN([C@@H](C)CO)C(=O)c2cccc(NC(=O)c3ccc(-c4nccs4)cc3)c2O[C@@H]1CN(C)C(=O)Nc1ccc(C(F)(F)F)cc1` belongs inactive: 0.967; to `C[C@@H]1CCCCO[C@@H](CN(C)Cc2ccc(C(=O)Nc3ccccc3N)cc2)[C@@H](C)CN([C@H](C)CO)C(=O)c2cc(NC(=O)c3ccncc3)ccc2O1`, inactive: 0.977; to `CO[C@H]1C[C@@H](C[C@@H](C)[C@H]2CC(=O)[C@@H](C)/C=C(\C)[C@@H](O)[C@@H](OC)C(=O)[C@@H](C)C[C@@H](C)/C=C/C=C/C=C(\C)[C@H](OC)C[C@H]3CC[C@@H](C)[C@@](O)(O3)C(=O)C(=O)N3CCCC[C@@H]3C(=O)O2)CC[C@@H]1OC(=O)C(C)(CO)CO`, inactive: 0.982.
With `C[C@H]1CCCCO[C@H](CN(C)Cc2ccccc2)[C@@H](C)CN([C@@H](C)CO)C(=O)c2cc(NC(=O)Nc3ccccc3)ccc2O1` the figure was inactive: 1.01; with `C[C@@H]1CN([C@H](C)CO)C(=O)c2cc(/C=C/c3ccccc3)cnc2O[C@@H]1CN(C)C(=O)c1cnccn1`, inactive: 1.01; with `O=C(CN1CCOCC1)NCC[C@H]1CC[C@H](NC(=O)Cc2ccccn2)[C@H](CO)O1`, inactive: 1.
To `C[C@@H]1CCCCO[C@H](CN(C)Cc2ccc(C(=O)O)cc2)[C@H](C)CN([C@H](C)CO)C(=O)c2cc(NC(=O)Nc3ccc(F)cc3)ccc2O1` belongs inactive: 0.995; to `CO[C@@H]1CN(C)C(=O)c2cc(NC(=O)NC(C)C)ccc2OC[C@H](C)N(Cc2ccc(-c3ccccn3)cc2)C[C@H]1C`, inactive: 1.04.
Turning to `CC(=O)n1cc([C@@H]2C=C(C(=O)N3CCN(C)CC3)O[C@H](OCc3ccc(CO)cc3)C2)c2ccccc21`, the relative growth was inactive: 0.987.
Turning to `CCn1nnc2c(SCC(N)=O)ncnc21`, the relative growth was inactive: 0.969.
To `C[C@H]1CCCCO[C@@H](CN(C)Cc2ccncc2)[C@@H](C)CN([C@@H](C)CO)C(=O)c2cc(NS(C)(=O)=O)ccc2O1` belongs inactive: 0.98; to `NS(=O)(=O)c1ccc(NC(=S)NCCN2CCOCC2)cc1`, inactive: 0.99.
With `CC(C)NC(=O)Nc1ccc2c(c1)C(=O)N([C@H](C)CO)C[C@H](C)[C@@H](CN(C)Cc1ccc(C(=O)O)cc1)O2` the figure was inactive: 0.998; with `C[C@@H]1CN([C@@H](C)CO)C(=O)c2cc(NS(=O)(=O)c3ccccc3)ccc2O[C@@H]1CN(C)S(=O)(=O)c1ccccc1`, inactive: 0.985; with `CCOC(=O)[N-]c1c[n+](N2CCOCC2)no1`, inactive: 0.938.
To `C[C@@H]1CN([C@H](C)CO)C(=O)c2cc(NC(=O)c3ccccc3)ccc2O[C@@H](C)CCCCO[C@@H]1CN(C)C(=O)Cc1ccccc1` belongs inactive: 1.03; to `CO[C@H]1[C@H](O)[C@@H](O)[C@@H](O)[C@H](O)[C@@H]1O`, inactive: 1.
`C[C@H](CO)N1C[C@H](C)[C@@H](CN(C)S(=O)(=O)c2ccc(F)cc2)Oc2ccc(NC(=O)CCN3CCOCC3)cc2CC1=O`: the relative growth was inactive: 1.02.
With `C=CCOC(=O)[C@H]1[C@@H]2C(=O)O[C@@H](c3ccccc3)[C@@H](c3ccccc3)N2[C@@H](c2ccc(OCCOC(=O)[C@H]3C[C@H]4C(=O)N[C@@H](CC(C)C)C(=O)N4[C@H]3c3ccc(O)cc3)cc2)[C@]12C(=O)Nc1ccccc12` the figure was inactive: 1.03; with `C[C@H]1CN([C@@H](C)CO)C(=O)c2cccc(NS(C)(=O)=O)c2O[C@@H]1CN(C)C(=O)Nc1ccc(C(F)(F)F)cc1`, inactive: 0.884.
With `C/C(=N\N)c1nnn(-c2nonc2N)c1C` the figure was inactive: 0.991; with `O=C(C[C@H]1C=C[C@@H](NC(=O)Cc2ccccn2)[C@H](CO)O1)NCCCN1CCOCC1`, inactive: 0.99.
To `CCN1[C@@H]2Cn3c(ccc(-c4ccncc4)c3=O)[C@H]1[C@@H](C(=O)NCCc1cn(C)cn1)[C@@H]2CO` belongs inactive: 0.976; to `Cc1noc(C)c1NC(=O)N(C)C[C@H]1Oc2ccc(NC(=O)CCN3CCOCC3)cc2C(=O)N([C@@H](C)CO)C[C@@H]1C`, inactive: 1.02; to `CCCn1c(=O)c(C)cn2nc(N)nc12`, inactive: 1.01.
For the compound `Cc1noc(C)c1NC(=O)N(C)C[C@H]1OCCCC[C@H](C)Oc2ccc(NS(=O)(=O)c3ccccc3)cc2C(=O)N([C@@H](C)CO)C[C@H]1C`, the relative growth is inactive: 1.01.
On to `CCS(=O)(=O)N1C[C@]2(CCN(CC2)C(=O)NC2CCCC2)c2c(n(c3cc(ccc23)OC)C)[C@@H]1CO`, for which the relative growth is inactive: 0.998.
For `CN1C(=O)C[C@@H](C(=O)N[C@@H](Cc2cnc[nH]2)C(=O)N2CCC[C@H]2C(N)=O)NC1=O`, the relative growth was inactive: 0.998.
